Measurements reported in PubChem BioAssay AID686971 (National Center for Advancing Translational Sciences (NCATS), 2013).
Where “and” joins values, the source holds several entries; their conditions need not be identical. Identical values can stand only once. The campaign covered roughly 360,000 compounds. About 7,500 (2.1%) were called active. Inconclusive means that the source gave no clear call. Such entries were picked first, then a sample of the others. The call rests on the fitted dose curve; in most records, active means well fitted cell-killing curve with a large enough effect; inconclusive means small, poorly fitted or top-dose-only effect, or effect the other way, or another doubt; inactive means no such curve, though single readings can be large or run the other way. A potency beside an inconclusive call is a rough fit, not a confirmed value.

Experiment: qHTS for induction of synthetic lethality in tumor cells producing 2HG: qHTS for the HT-1080-IDH1KD cell line;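 on activity, negative = toxicity: 0% = DMSO wells and -100% = cell-free medium wells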
Conditions: HT-1080 IDH1 knockdown viability, ATP luminescence, 48 h; activity, negative = toxicity: at 46.1 µM (top of the series) unless noted
Procedure, shortened: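 IDH1KD HT-1080 cells, 750/well, RPMI + 5% FBS; compound pinned after 2 h settling; 48 h, 37 °C; CellTiter-Glo luminescence; % activity normalised to DMSO and no-cell wells; curves fitted, classed by r2 and efficacy.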
Potency means the concentration at half of the fitted maximal effect; tags describe the fitted curve by direction and shape.

| Structure (SMILES) | Potency | activity, negative = toxicity |
| --- | --- | --- |
| c1ccc(-n2ncc3c(NCc4ccc5c(c4)OCO5)ncnc32)cc1 | inconclusive: 14.1 µM [cytotoxic, single point] |  |
| CC(=O)c1ccc(-c2cnc3c(NC=O)cc(-c4cccc(NS(C)(=O)=O)c4)cn23)cc1 | active: 8.2 µM |  |
| COc1cc(NC(=O)COc2cc(O)c3c(c2)OC(C)(C)CC3=O)cc(OC)c1OC | inconclusive: 2.31 µM [cytotoxic, partial curve, poor fit] |  |
| Cn1cccc1Cc1nnc(SCC(=O)Nc2ccc3c(c2)OCO3)n1CCc1ccccc1 | inconclusive: 20.6 µM [cytotoxic, single point] |  |
| CC(C)N1CN(c2ccccc2)C(=S)N(c2ccccc2)C1 |  | inactive: 17.8% |
| COc1cccc(NC(=S)N(CCCN2CCOCC2)Cc2cn(C)c3ccccc23)c1 |  | inactive: -24.8% |
| CC(=O)c1c(C)cc(C)c(CSc2nc(C)cc(=O)[nH]2)c1C | inconclusive: 20 µM [cytotoxic, single point] |  |
| NC(=O)[C@@H]1CCCN1Cc1nc(Cc2ccccc2F)no1 |  | inactive: -0.881% |
| CCCc1nc2ccc(C)cn2c1Cc1ccccc1OC | active: 18.4 µM |  |
| Nc1nc(N)c2cc(S(=O)(=O)c3cccc(C(F)(F)F)c3)ccc2n1 | active: 10.3 µM |  |
| CCOc1ccccc1N1CC(C(=O)N(C)Cc2cccnc2)CC1=O (stereo not drawn) |  | inactive: 11.9% |
| O=C(Nc1ccc(F)cc1Cl)C1CCN(C(=O)Nc2ccccc2)CC1 |  | inactive: 2.6% |
| O=C1NC(Nc2nc3ccccc3s2)(C(F)(F)F)C(=O)N1C1CCCCC1 (stereo not drawn) | inconclusive: 25.1 µM [cytotoxic, single point] |  |
| Cc1cccc(NC(=S)NC(=O)c2ccco2)c1C |  | inactive: 16.9% |
| CC1(C(=O)NS(=O)(=O)c2ccccc2Cl)CCN1C(=O)C/C=C/c1ccccc1 (stereo not drawn) |  | inactive: -1.45% |
| O=C(OCC(=O)N1CCOCC1)c1ccc2[nH]c3c(c2c1)CCCC3 |  | inactive: -2.27% |
| O=C(NCCc1ccccc1F)c1[nH]c(C(F)(F)F)nc1-c1ccccc1 | inconclusive: 29.1 µM [cytotoxic, single point] |  |
| CC(=O)Nc1cc(-c2ccccc2CN(C)C)cn2c(-c3ccc(C(C)=O)cc3)cnc12 | inconclusive: 20.6 µM [cytotoxic, single point] |  |
| CCOC(=O)c1ccc2c(c1)N(C)C(=O)c1ccccc1S2 |  | inactive: 8.16% |
| CCCOc1ccc(-c2cc(C(=O)NCC3CCCO3)c3ccccc3n2)cc1 (stereo not drawn) | inconclusive: 29.1 µM [cytotoxic, single point] |  |
| O=C(CSC1=NCCS1)NC(c1ccccc1)c1ccccc1 | inconclusive: 29.1 µM [cytotoxic, single point] |  |
| CC(=NNC(=S)N1CCCCCC1)c1ccccn1 | inconclusive: 8.2 µM [cytotoxic, partial curve] |  |
| Cc1ccc(OCCOCCOc2ccc(Br)cc2/C=N\NC(=O)c2ccncc2)cc1 | inconclusive: 29.1 µM [cytotoxic, single point] |  |
| CCCOc1cccc(-c2cc(C(=O)N/N=C/c3cccnc3)c3ccccc3n2)c1 | inconclusive: 29.1 µM [cytotoxic, single point] |  |
| CC(=O)c1sc(NC(=O)C2(F)C(F)(F)C(F)(F)C(F)(F)C(F)(F)C2(F)F)nc1C | active: 7.08 µM |  |

| Structure (SMILES) | Potency | activity, negative = toxicity |
| --- | --- | --- |
| CC(C)(C)c1ccc(-c2conc2N)cc1 | inconclusive: 35.5 µM [cytotoxic, single point] |  |
| Cc1nc2ccccc2nc1SCC(=O)N1CCC(C)CC1 | inconclusive: 15.8 µM [cytotoxic, single point] |  |
| c1ccc(-c2nc3ccccc3nc2N2CCOCC2)cc1 |  | inactive: 5.6% |
| CCC(C)Sc1cc(-c2nc3ccc(C)cn3c2NCc2ccccc2)ccc1OC (stereo not drawn) | inconclusive: 37.2 µM [cytotoxic, single point] and inconclusive: 20.6 µM [cytotoxic, single point] |  |
| CCOc1ccc(N(CC)S(=O)(=O)c2ccc3c(c2)oc(=O)n3C)cc1 |  | inactive: -13.3% |
| Cc1ccc(NC(=O)C2Cc3ccccc3O/C2=N\O)cc1C (stereo not drawn) | inconclusive: 32.6 µM [cytotoxic, single point] |  |
| COc1cccc(-c2nnc(SCC(=O)N(C(C)C)C(C)C)o2)c1 |  | inactive: -1.32% |
| Clc1ccc(/C=C/c2nc3ccccc3[nH]2)cc1 | inconclusive: 18.4 µM [cytotoxic, single point] |  |
| CCCOc1ccc([C@@H]2C3CN(C(=O)OCC)CC=C3C(C#N)=C(N)C2(C#N)C#N)cc1OC (stereo partly drawn) | inconclusive: 35.5 µM [cytotoxic, single point] |  |
| O=C(NCCC1=CCCCC1)C(=O)NCC(c1ccco1)N1CCN(c2ccccc2F)CC1 (stereo not drawn) |  | inactive: 2.34% |
| CCOC(=O)C1(CCOc2ccccc2)CCN(Cc2ccc3c(c2)OCCO3)CC1 | inconclusive: 18.4 µM [cytotoxic, single point] |  |
| COc1ccccc1-c1ccc2c(c1)C(C)(Cc1ccc(F)c(Cl)c1)C(=O)N2 (stereo not drawn) | inconclusive: 29.1 µM [cytotoxic, single point] |  |
| Cn1c(SCc2cccc(Cl)c2)nc(C(F)(F)F)cc1=O | inconclusive: 11.2 µM [cytotoxic, single point] |  |
| Cc1noc(C)c1C(=O)N(CC(=O)NC1CCCC1)Cc1ccccc1F | inconclusive: 0.708 µM [rising, full curve] |  |
| CC1(C)CC(=O)C2=C(C1)N1C(=C(C#N)C2c2ccc(Cl)cc2)N=C(N)c2ccccc21 (stereo not drawn) | inconclusive: 29.1 µM [cytotoxic, single point] |  |
| Cc1cc(-c2csc(N)n2)c(C)n1CCC(C)C |  | inactive: 1.2% |
| CNCc1ccccc1OCC(=O)Nc1ccccc1 |  | inactive: -0.368% |
| COc1ccc(C(=O)N2CCC(C)(C(=O)NS(=O)(=O)C3CC3)C2)cc1 (stereo not drawn) |  | inactive: 28.3% |
| COc1cccc(-c2cnc3c(NC=O)cc(-c4ccc(N5CCN(C)CC5)cc4)cn23)c1 | inconclusive: 29.1 µM [cytotoxic, single point] |  |
| CC(=O)C(Cl)C(=O)Nc1ccccc1 (stereo not drawn) | inconclusive: 20.6 µM [cytotoxic, single point] |  |
| COC(=O)C(=Cc1ccc(-c2ccsc2C(=O)OC)o1)C(=O)OC | active: 20.6 µM |  |
| CC(=O)c1cccc(NS(=O)(=O)c2csc(C(N)=O)c2)c1 |  | inconclusive: 9.88% |
| CN(C)/C=C/C(=O)c1ccc(N2CCN(c3ncc(C(F)(F)F)cc3Cl)CC2)cc1 | inconclusive: 18.4 µM [cytotoxic, single point] |  |
| CC1CCc2c(sc3ncnc(N4CCOCC4)c23)C1 (stereo not drawn) | inconclusive: 22.4 µM [cytotoxic, single point] |  |
| CCOC(=O)[C@]12CCCC=C1N(Cc1ccc(Cl)cc1Cl)C(=O)[C@H](CC(=O)NCC13CC4CC(CC(C4)C1)C3)C2 | inconclusive: 23.1 µM [cytotoxic, single point] |  |

| Structure (SMILES) | Potency | activity, negative = toxicity |
| --- | --- | --- |
| CC(CNC(=O)COc1ccccc1)OC(=O)Nc1ccc(Cl)c(Cl)c1 (stereo not drawn) | inconclusive: 25.9 µM [cytotoxic, single point] |  |
| CN(C(=O)CSc1nc(-c2ccccc2)cn1N)C(c1ccccc1)c1ccccc1 | inconclusive: 35.5 µM [cytotoxic, single point] |  |
| CCOC(=O)c1ccc(NC(=O)CSc2nnc(CC)o2)cc1 | inconclusive: 29.1 µM [cytotoxic, single point] |  |
| COc1ccc(NC(=O)C(=O)NCC2CCCN2S(=O)(=O)c2cc(C)ccc2C)cc1 (stereo not drawn) | active: 18.4 µM |  |
| O=C(NC(=S)NNC(=O)c1cc2ccccc2cc1O)c1ccco1 | inconclusive: 2.06 µM [cytotoxic, full curve] |  |
| CN(C)CCNC(=O)c1ccccc1-c1cc2ccccc2c(=O)o1 |  | inactive: 9.19% |
| COc1cc(-c2noc(C)c2/C=C/c2ccc(N)cc2)cc(OC)c1OC | active: 0.92 µM |  |
| Cc1ccccc1N=Cc1cccc(O)c1O | active: 14.6 µM |  |
| CCCn1c2ccccc2c2cnn(CC(=O)NCCN(CC)CC)c(=O)c21 | inconclusive: 23.1 µM [cytotoxic, partial curve] |  |
| COc1cccc(NC(=O)CSc2nc3ccccc3c(=O)n2C)c1 |  | inconclusive: -14.1% [cytotoxic] |
| CCCCc1nc(NCCN)c(C#N)c2c1CSC(C)(C)C2 | inconclusive: 23.1 µM [cytotoxic, single point] |  |
| Cn1c(NCc2c(O)ccc3ccccc23)nc2ccccc21 | inconclusive: 29.1 µM [cytotoxic, single point] |  |
| Cc1ccc(-c2cnc(-c3ccccc3C(=O)O)o2)cc1 |  | inactive: 13.7% |
| CCOC(=O)N1CCC(NC(=O)CS(=O)Cc2nc(-c3ccc(C)cc3)oc2C)CC1 (stereo not drawn) |  | inactive: -0.758% |
| CCN(C)c1ccc(/C=N\n2nnnc2N)cc1 | active: 5.17 µM |  |
| N#CCC1c2ccccc2CCN1C(=O)Nc1cccc(C(F)(F)F)c1 (stereo not drawn) | inconclusive: 28.2 µM [cytotoxic, single point] |  |
| Cc1ccc(NC(=O)Cc2cc(C(=O)O)c3ccccc3n2)c(C)c1 | inconclusive: 18.4 µM [cytotoxic, single point] |  |
| CC(=O)c1ccccc1NC(=O)CSc1nc2ccccc2c(=O)n1CCCN1CCOCC1 | inconclusive: 29.1 µM [cytotoxic, single point] |  |
| Cc1ccoc1C(=O)N1CCCC(CCC(=O)N2CCN(c3ccccn3)CC2)C1 (stereo not drawn) | inconclusive: 23.1 µM [rising, single point] |  |
| O=C(NCCN1CCOCC1)c1cnn2c(-c3ccccc3)cc(-c3ccccc3)nc12 | inconclusive: 35.5 µM [cytotoxic, single point] |  |
| COc1ccc(S(=O)(=O)/N=C2\C=C(NS(=O)(=O)c3ccccc3)C(=O)c3ccccc32)cc1 | active: 20.6 µM |  |
| CC1(c2nc3ccccc3[nH]2)CCC(=O)N1Cc1cccs1 (stereo not drawn) |  | inactive: 17.4% |
| Cc1ccc(Nc2c3c(nc4ccccc24)CCC3)cc1 | inconclusive: 29.1 µM [cytotoxic, single point] |  |
